# Measured values published in article PMC12820563, “FoxP3 forms a head-to-head dimer in vivo and stabilizes its multimerization on adjacent microsatellites”.
# The list shows a part of the results.
# Molecular target: T1, MBP-FoxP1dN (Mus musculus, UniProt P58462 326-579)
# T1 sequence: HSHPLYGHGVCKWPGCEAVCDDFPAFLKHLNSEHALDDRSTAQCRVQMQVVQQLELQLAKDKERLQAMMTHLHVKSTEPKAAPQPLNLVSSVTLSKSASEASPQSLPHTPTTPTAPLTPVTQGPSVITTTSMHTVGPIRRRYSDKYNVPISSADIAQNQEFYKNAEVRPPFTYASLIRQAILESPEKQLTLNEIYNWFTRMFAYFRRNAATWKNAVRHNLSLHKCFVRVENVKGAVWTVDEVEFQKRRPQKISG
# Assay: PD-seq (MBP pull-down with sequencing); 20 mM Tris-HCl pH 7.5, 100 mM NaCl, 1.5 mM MgCl2, 0.4 uM protein, 0.1 uM dsDNA library, 30 min, room temperature, amylose pull-down; high values mean tight binding
# Settings: protein: recombinant; tags: His6-MBP; chain copies: 2; dsDNA, one strand shown
# Method in brief: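 His6-MBP-tagged mouse FoxP3 or FoxP1 fragment lacking the N-terminus, expressed in E. coli, was mixed at 0.4 µM with 0.1 µM Klenow-filled double-stranded degenerate DNA library. Incubation was 30 min at room temperature in Tris pH 7.5 buffer with NaCl and MgCl2. Complexes were caught on amylose resin and washed three times; DNA was released with proteinase K, PCR-barcoded and Illumina-sequenced. Binding is reads-per-million enrichment, pull-down over input, with replicates pooled.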
row,Sequence,binding signal
1,GATGATTGTTCTCCCAGCTGATGAATTCTGGATATCGAGTAAACAAATTTTCCTAATCTTTCTGTTCAAGCGCCATCTAC,0.967 RPM ratio (pull-down/input)
2,GATGATTGTTCTCCCAGCTGATGAATTCTTCGGATCGAGTAAACAAATTTTCCTAATCTTTCTGTTCAAGCGCCATCTAC,0.789 RPM ratio (pull-down/input)
3,GATGATTGTTCTCCCAGCTGATGAATTCTATAATTCGAGTAAACAAATTTTCCTAATCTTTCTGTTCAAGCGCCATCTAC,0.944 RPM ratio (pull-down/input)
4,GATGATTGTTCTCCCAGCTGATGAATTAGACCGATCGAGTAAACAAATTTTCCTAATCTTTCTGTTCAAGCGCCATCTAC,0.899 RPM ratio (pull-down/input)
5,GATGATTGTTCTCCCAGCTGATGAATTAGCTTAATCGAGTAAACAAATTTTCCTAATCTTTCTGTTCAAGCGCCATCTAC,0.948 RPM ratio (pull-down/input)
6,GATGATTGTTCTCCCAGCTGATGAATTTGCGTGGTCGAGTAAACAAATTTTCCTAATCTTTCTGTTCAAGCGCCATCTAC,0.97 RPM ratio (pull-down/input)
7,GATGATTGTTCTCCCAGCTGATGAATTGATTCCATCGAGTAAACAAATTTTCCTAATCTTTCTGTTCAAGCGCCATCTAC,1.09 RPM ratio (pull-down/input)
8,GATGATTGTTCTCCCAGCTGATGAATTGCAGGCGTCGAGTAAACAAATTTTCCTAATCTTTCTGTTCAAGCGCCATCTAC,1.06 RPM ratio (pull-down/input)
9,GATGATTGTTCTCCCAGCTGATGAATTCCGCAGGTCGAGTAAACAAATTTTCCTAATCTTTCTGTTCAAGCGCCATCTAC,0.719 RPM ratio (pull-down/input)
10,GATGATTGTTCTCCCAGCTGATGAATTACGTATGTCGAGTAAACAAATTTTCCTAATCTTTCTGTTCAAGCGCCATCTAC,1.1 RPM ratio (pull-down/input)
11,GATGATTGTTCTCCCAGCTGATGAATTCTTGCGCTCGAGTAAACAAATTTTCCTAATCTTTCTGTTCAAGCGCCATCTAC,0.907 RPM ratio (pull-down/input)
12,GATGATTGTTCTCCCAGCTGATGAATTAGCGTACTCGAGTAAACAAATTTTCCTAATCTTTCTGTTCAAGCGCCATCTAC,0.923 RPM ratio (pull-down/input)
13,GATGATTGTTCTCCCAGCTGATGAATTACATATCTCGAGTAAACAAATTTTCCTAATCTTTCTGTTCAAGCGCCATCTAC,1.35 RPM ratio (pull-down/input)
14,GATGATTGTTCTCCCAGCTGATGAATTATTCCAATCGAGTAAACAAATTTTCCTAATCTTTCTGTTCAAGCGCCATCTAC,1.12 RPM ratio (pull-down/input)
15,GATGATTGTTCTCCCAGCTGATGAATTAAATGTCTCGAGTAAACAAATTTTCCTAATCTTTCTGTTCAAGCGCCATCTAC,0.889 RPM ratio (pull-down/input)
16,GATGATTGTTCTCCCAGCTGATGAATTTACGCTTTCGAGTAAACAAATTTTCCTAATCTTTCTGTTCAAGCGCCATCTAC,1.39 RPM ratio (pull-down/input)

row,Sequence,binding signal
1,GATGATTGTTCTCCCAGCTGATGAATTGCGAGCATCGAGTAAACAAATTTTCCTAATCTTTCTGTTCAAGCGCCATCTAC,1.14 RPM ratio (pull-down/input)
2,GATGATTGTTCTCCCAGCTGATGAATTACTTACATCGAGTAAACAAATTTTCCTAATCTTTCTGTTCAAGCGCCATCTAC,1.25 RPM ratio (pull-down/input)
3,GATGATTGTTCTCCCAGCTGATGAATTGGTCCTCTCGAGTAAACAAATTTTCCTAATCTTTCTGTTCAAGCGCCATCTAC,0.834 RPM ratio (pull-down/input)
4,GATGATTGTTCTCCCAGCTGATGAATTAGCTAGATCGAGTAAACAAATTTTCCTAATCTTTCTGTTCAAGCGCCATCTAC,0.965 RPM ratio (pull-down/input)
5,GATGATTGTTCTCCCAGCTGATGAATTGATTAGTTCGAGTAAACAAATTTTCCTAATCTTTCTGTTCAAGCGCCATCTAC,1.15 RPM ratio (pull-down/input)
6,GATGATTGTTCTCCCAGCTGATGAATTAATTGCGTCGAGTAAACAAATTTTCCTAATCTTTCTGTTCAAGCGCCATCTAC,1.22 RPM ratio (pull-down/input)
7,GATGATTGTTCTCCCAGCTGATGAATTCCTCAGCTCGAGTAAACAAATTTTCCTAATCTTTCTGTTCAAGCGCCATCTAC,0.727 RPM ratio (pull-down/input)
8,GATGATTGTTCTCCCAGCTGATGAATTTACTCTCTCGAGTAAACAAATTTTCCTAATCTTTCTGTTCAAGCGCCATCTAC,1.17 RPM ratio (pull-down/input)
9,GATGATTGTTCTCCCAGCTGATGAATTTTTCCCTTCGAGTAAACAAATTTTCCTAATCTTTCTGTTCAAGCGCCATCTAC,0.907 RPM ratio (pull-down/input)
10,GATGATTGTTCTCCCAGCTGATGAATTCGCCTCTTCGAGTAAACAAATTTTCCTAATCTTTCTGTTCAAGCGCCATCTAC,0.972 RPM ratio (pull-down/input)
11,GATGATTGTTCTCCCAGCTGATGAATTCCTTGTCTCGAGTAAACAAATTTTCCTAATCTTTCTGTTCAAGCGCCATCTAC,0.853 RPM ratio (pull-down/input)
12,GATGATTGTTCTCCCAGCTGATGAATTTCAGGATTCGAGTAAACAAATTTTCCTAATCTTTCTGTTCAAGCGCCATCTAC,0.81 RPM ratio (pull-down/input)
13,GATGATTGTTCTCCCAGCTGATGAATTACGTAAATCGAGTAAACAAATTTTCCTAATCTTTCTGTTCAAGCGCCATCTAC,1.34 RPM ratio (pull-down/input)
14,GATGATTGTTCTCCCAGCTGATGAATTCCGCGCGTCGAGTAAACAAATTTTCCTAATCTTTCTGTTCAAGCGCCATCTAC,0.967 RPM ratio (pull-down/input)
15,GATGATTGTTCTCCCAGCTGATGAATTGTCGCCGTCGAGTAAACAAATTTTCCTAATCTTTCTGTTCAAGCGCCATCTAC,0.958 RPM ratio (pull-down/input)
16,GATGATTGTTCTCCCAGCTGATGAATTTTCTCTGTCGAGTAAACAAATTTTCCTAATCTTTCTGTTCAAGCGCCATCTAC,0.831 RPM ratio (pull-down/input)
